We go through 37 compounds from the supplement of paper PMC9446081.

Screen size: about 39,000 compounds; about 220 (0.56%) showed activity. The list shows a part of the results.
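Note: static incubation at 37 °C against the wild-type strain, values averaged over two biological replicates.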

The subject of the assay is Escherichia coli K-12 BW25113. In words: relative growth (OD600 normalised to plate interquartile mean) (fraction); higher = less growth inhibition, active = 0.2 or less. Particulars: 50 µM; LB; incubation time: overnight (16-24 h).
Take `C[C@H](CO)N1C[C@H](C)[C@@H](CN(C)Cc2ccc(C(=O)O)cc2)Oc2ccc(NC(=O)CCN3CCOCC3)cc2CC1=O`: the relative growth was inactive: 0.987.
For `C[C@@H]1CN([C@H](C)CO)S(=O)(=O)c2ccc(C#Cc3ccc(F)cc3)cc2O[C@@H]1CN(C)S(=O)(=O)c1ccc(F)cc1` the value was inactive: 1.04; for `C[C@H]1CN([C@@H](C)CO)C(=O)Cc2cc(N(C)C)ccc2O[C@H]1CN(C)S(=O)(=O)c1cn(C)cn1`, inactive: 1.01.
`C[C@@H]1CCCCO[C@H](CN(C)S(=O)(=O)c2ccc(F)cc2)[C@@H](C)CN([C@@H](C)CO)C(=O)c2cc(NC(=O)Nc3ccc(F)cc3)ccc2O1`: the relative growth was inactive: 1.03.
For `CC(Cc1cccc(C(F)(F)F)c1)NCCOC(=O)c1ccccc1.Cl` (configuration not stated) the value was inactive: 0.815; for `CC(C)NC(=O)Nc1cccc2c1O[C@@H](CN(C)Cc1ccc3c(c1)OCO3)[C@H](C)CN([C@@H](C)CO)C2=O`, inactive: 1.
The value for `Cc1noc(C)c1NC(=O)Nc1ccc2c(c1)C(=O)N([C@H](C)CO)C[C@@H](C)[C@H](CN(C)C(=O)NC1CCCCC1)OCCCC[C@@H](C)O2` was inactive: 0.963; that for `C[C@H](CO)N1C[C@H](C)[C@@H](CN(C)C(=O)CN2CCOCC2)Oc2ncc(C#C[C@@H](C)O)cc2C1=O` was inactive: 1.02.
For `Cc1noc(C)c1S(=O)(=O)Nc1ccc2c(c1)CC(=O)N([C@H](C)CO)C[C@H](C)[C@H](CN(C)S(=O)(=O)c1c(C)noc1C)O2` the value was inactive: 1.01.
Take `COCC(=O)Nc1ccc2c(c1)OC[C@H](C)N(Cc1ccccc1F)C[C@@H](C)[C@H](OC)CN(C)C2=O`: the relative growth is inactive: 1.02.
Turning to `NC(=O)NC(CCC(=O)O)C(=O)O` (configuration not stated), the relative growth was inactive: 1.06.
For `C[C@@H]1CCCCO[C@@H](CN(C)Cc2ccc(Cl)c(Cl)c2)[C@@H](C)CN([C@@H](C)CO)C(=O)c2cc(NS(=O)(=O)c3ccc(F)cc3)ccc2O1` the value was inactive: 0.958.
Regarding `Cn1cnc(S(=O)(=O)N[C@H]2C=C[C@H](CC(=O)NCC3CC3)O[C@H]2CO)c1`, the relative growth is inactive: 1.03.
For `COCC(=O)Nc1ccc2c(c1)CC(=O)N2C` the value was inactive: 0.991; for `C[C@@H]1CN([C@H](C)CO)C(=O)c2cc(-c3ccc(C(=O)N(C)C)cc3)cnc2O[C@H]1CN(C)C(=O)c1ccncc1`, inactive: 1.01.
For `C[C@@H]1CN([C@H](C)CO)C(=O)Cc2cc(NS(C)(=O)=O)ccc2O[C@@H]1CN(C)C(=O)Nc1ccc(F)cc1` the value was inactive: 0.928; for `C[C@@H]1CCCCO[C@H](CN(C)S(=O)(=O)c2cccs2)[C@@H](C)CN([C@@H](C)CO)C(=O)c2cc(NS(=O)(=O)c3cn(C)cn3)ccc2O1`, inactive: 0.989; for `C[C@@H]1CCCCO[C@H](CN(C)C(=O)c2ccccc2)[C@H](C)CN([C@@H](C)CO)C(=O)c2cc(NC(=O)CCCCCC(=O)Nc3ccccc3N)ccc2O1`, inactive: 0.982.
For `C[C@@H]1CN([C@@H](C)CO)C(=O)CCCn2cc(nn2)CO[C@H]1CN(C)C(=O)Nc1cccc2ccccc12` the value was inactive: 0.994; for `CC(C)NC(=O)Nc1ccc2c(c1)C(=O)N([C@@H](C)CO)C[C@H](C)[C@H](CN(C)S(=O)(=O)c1ccc(Cl)cc1)O2`, inactive: 1.04; for `CN(C)CCCNC(=O)C[C@@H]1CC[C@@H]2[C@H](COc3ccc(NC(=O)NC4CCCC4)cc3C(=O)N2C)O1`, inactive: 1.02.
For the compound `C[C@@H]1CN([C@H](C)CO)C(=O)c2cc(NC(=O)Cc3ccccc3)ccc2O[C@@H]1CN(C)S(C)(=O)=O`, the relative growth was inactive: 1.04.
The value for `C[C@@H]1CCCCO[C@@H](CN(C)Cc2ccc(C(=O)Nc3ccccc3N)cc2)[C@H](C)CN([C@H](C)CO)C(=O)c2cc(N(C)C)ccc2O1` was inactive: 0.992.
For `O=C(C[C@@H]1CC[C@H](NC(=O)c2cnccn2)[C@@H](CO)O1)NCc1ccccc1F` the value was inactive: 0.993.
For `Cc1noc(C)c1S(=O)(=O)Nc1ccc2c(c1)CC(=O)N([C@@H](C)CO)C[C@@H](C)[C@@H](CN(C)Cc1ccc(Oc3ccccc3)cc1)O2` the value was inactive: 0.994.
For `CCOC(=O)[C@H]1CSCCN1`, the relative growth is inactive: 0.895.
The value for `C[C@H](CO)N1C[C@H](C)[C@@H](CN(C)S(=O)(=O)c2cn(C)cn2)Oc2ccc(NS(=O)(=O)c3cn(C)cn3)cc2CC1=O` was inactive: 1.02; that for `Cc1ccc(S(=O)(=O)Nc2ccc3c(c2)C(=O)N([C@@H](C)CO)C[C@H](C)[C@@H](CN(C)Cc2ccncc2)OCCCC[C@@H](C)O3)cc1` was inactive: 0.97; that for `O=C(C[C@H]1CC[C@H]2[C@@H](COC[C@H](O)CN2C(=O)Nc2ccc(C(F)(F)F)cc2)O1)NCCc1ccncc1` was inactive: 0.791.
In the case of `Cc1noc(C)c1NC(=O)Nc1cccc2c1O[C@@H](CN(C)Cc1ccc(C(F)(F)F)cc1)[C@@H](C)CN([C@@H](C)CO)C2=O`, the relative growth was inactive: 0.981.
For `O=C(/C=C/c1ccc(O)c(O)c1)O[C@@H]1[C@H](O)C[C@@](O)(C(=O)O)C[C@H]1OC(=O)/C=C/c1ccc(O)c(O)c1` the value was inactive: 1; for `C[C@H](CO)N1C[C@H](C)[C@H](CN(C)Cc2ccc(C(F)(F)F)cc2)Oc2ccc(NS(C)(=O)=O)cc2C1=O`, inactive: 1.01.
For `O=C(N/N=C/[C@H](O)[C@H](O)[C@@H](O)[C@@H](O)CO)c1ccccn1` the value was inactive: 0.998; for `CC(C)C[C@H](NC(=O)[C@H](CCCCN)NC(=O)[C@H](CCCNC(=N)N)NC(=O)[C@H](C)NC(=O)[C@H](CO)NC(=O)[C@H](CCCCN)NC(=O)[C@H](CCCNC(=N)N)NC(=O)[C@H](C)NC(=O)CNC(=O)[C@@H](NC(=O)[C@H](Cc1ccccc1)NC(=O)CNC(=O)CNC(=O)[C@@H](N)Cc1ccccc1)[C@@H](C)O)C(=O)N[C@@H](C)C(=O)N[C@@H](CC(N)=O)C(=O)N[C@@H](CCC(N)=O)C(=O)O`, inactive: 0.991; for `COC(=O)CCCCCCC(=O)N/N=C/[C@@H](O)[C@H](O)[C@H](O)CO`, inactive: 0.954.
For `COc1cncc(O)c1` the value was inactive: 1.04; for `Cc1ccc(S(=O)(=O)N(C)C[C@H]2Oc3c(NS(C)(=O)=O)cccc3C(=O)N([C@H](C)CO)C[C@@H]2C)cc1`, inactive: 0.993.
